Out of some 48,000 compounds screened, about 1,200 (2.5%) were called active. Inconclusive results (about 2%) are left out.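 How the source made its calls: active means activation of at least 60% and not above a set upper limit (about 1 call in 100 departs from these limits); inconclusive means activation of 40% to 60%, or above that upper limit; inactive means activation under 40%.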 The list shows a part of the results.

The target of this test is Probable G-protein coupled receptor 32 (Homo sapiens) (UniProt O75388). The test is described as follows: qHTS for Agonists of Human Resolvin D1 Receptor DRV1. Further: 0% is about no effect. To be noted: CHO-K1 GPR32 beta-arrestin PathHunter luminescence, 90 min; at 76.9 µM; active compounds read high; zero percent set by DMSO-only wells. The gist of the method: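 GPR32 activation in stably transfected CHO-K1 cells, detected as beta-arrestin recruitment by enzyme-fragment complementation. Compound exposure: 90 min, 37 °C.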
Sequence of UniProt O75388 (O75388 whole entry, looked up, the tested form may be a part): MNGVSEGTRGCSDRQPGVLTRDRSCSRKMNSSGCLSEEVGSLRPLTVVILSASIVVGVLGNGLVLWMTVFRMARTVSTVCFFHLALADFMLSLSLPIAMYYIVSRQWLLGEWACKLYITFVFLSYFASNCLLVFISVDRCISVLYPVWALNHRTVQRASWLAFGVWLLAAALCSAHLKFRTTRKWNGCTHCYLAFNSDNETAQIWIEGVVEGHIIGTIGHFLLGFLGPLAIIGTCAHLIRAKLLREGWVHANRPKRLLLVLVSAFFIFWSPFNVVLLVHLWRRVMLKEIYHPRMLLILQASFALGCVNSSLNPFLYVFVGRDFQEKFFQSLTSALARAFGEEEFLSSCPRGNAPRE
In general terms: Quantitative high-throughput screening tests each substance at several concentrations.
As for `CCOc1ccc(-c2c(C)nn3c(C)c(C(=O)NCCc4ccc(C)cc4)cnc23)cc1OCC`, the activation is inactive: 1.4%.
As to `CCc1c(C)sc2c1CCN(Cc1ccccc1F)C2c1ccccc1` (stereo not given), the activation was inactive: 32.6%.
In the case of `Cc1nc2cccnc2n1C1CCN(C(=O)Nc2ccc(Cl)cc2)CC1` it was active: 87.7%; in that of `O=C(NCCSc1c[nH]c2ccccc12)c1ccccc1Cl`, inactive: -56.9%; in that of `COc1ccc(NC(=O)C2CCN(S(=O)(=O)c3c(C)noc3/C=C/c3cccs3)CC2)cc1Cl`, inactive: -12.2%.
For the compound `COCCNC(=O)c1ccccc1NC(=O)c1nsc2ccccc12`, the activation was inactive: -11.4%.
On to `CNC(=O)CN1C(=O)COc2ccc(S(=O)(=O)N3CCC(C)CC3)cc21`, for which the activation was inactive: -2.81%.
As to `CCCCCCCCOc1ccc(C(=O)c2ccccc2)c(O)c1`, the activation was inactive: 1.5%.
In the case of `COC(=O)Cn1c(SCCOc2ccccc2OC)nc2ccccc21` it was inactive: -1.13%.
For `CCc1cc2c(cc3c(=O)n(CC(=O)NCCc4ccc(OC)cc4OC)nc(CC)n32)s1`, the activation was inactive: 6.62%.
Consider `COc1ccc2[nH]cc(CCN=C(NC(=O)c3ccccc3OC)Nc3nc(C)cc(C)n3)c2c1`, for which the activation is inactive: 42.6%.
To `Cc1ccc(-n2cnnn2)cc1S(N)(=O)=O` belongs inactive: 6.33%; to `COc1cccc(Cn2cc(C(=O)c3ccc(Cl)cc3)c(=O)c3ccccc32)c1`, inactive: 6.29%.
To `Cc1ccc(NC(=O)c2ccc(NC(=O)CCS(=O)(=O)c3cccs3)cc2)cc1F` belongs inactive: -8.13%; to `CCSc1ncc(Cl)c(C(=O)Nc2cccc(Cl)c2)n1`, inactive: 16.7%; to `Cc1ccccc1Nc1c(-c2ccc(N3CCOCC3)cc2)nc2ccc(Br)cn12`, inactive: -29.3%.
`COc1cccc(NC(=O)CN2C(=O)c3ccccc3Sc3ncccc32)c1`: the activation is inactive: 11.5%.
Consider `COc1ccc(NC2=C(c3ccc(C(F)(F)F)cc3)C(=O)c3ccccc32)cc1`, for which the activation was inactive: -18.9%.
For the compound `COc1ccccc1C(=O)Nc1c(C(=O)NC(C)(C)C)oc2ccccc12`, the activation was inactive: -32.1%.
In the case of `Cc1ccc(-n2nc(C)c3c(C(F)(F)F)cc(-c4cccnc4)nc32)cc1Cl` it was inactive: 6.28%.
Regarding `COc1cc(OC)c(N(C)C(=O)Nc2cn(CC(C)C)c(=O)c3ccccc23)cc1Cl`, the activation was inactive: -5.36%.
In the case of `CCCc1nn2c(=O)cc(COC(=O)CNC(=O)COc3ccc(C)cc3)nc2s1` it was inactive: -7.47%.
`COc1ccc(S(=O)(=O)N2CCN(c3ccccc3OC)CC2)cc1`: the activation is inactive: -8.88%.
To `CCOC(=O)c1ccc(NC(=O)c2cn3c4c(ccc(Cl)c4c2=O)OC(C)C3)cc1` (stereo not given) belongs inactive: 13.2%.
Take `Cc1ccc(-c2nc(C)c(CCNC(=O)c3ccccc3Br)s2)cc1`: the activation is inactive: 13%.

The values above are taken from PubChem BioAssay AID1346428 (National Center for Advancing Translational Sciences (NCATS), 2018).
